Reference: PubChem BioAssay AID485344 (National Center for Advancing Translational Sciences (NCATS), 2010)
Hit rate of the full screen: of about 340,000 compounds, about 6,900 (2%) were called active. No stated cut-off is given here; in the data, active means inhibition above about 30%; inactive means below that, where a call was filed. Only a part is listed here, and it is no random draw. Where no call is shown, the source filed none.

biological target: D(2) dopamine receptor (Homo sapiens) (UniProt P14416); test: HTS Assay for Allosteric Antagonists of the Human D2 Dopamine Receptor: Primary Screen for Antagonists; settings: HEK293 TREx D2 cells, calcium flux, dopamine EC80; at 10 µM; stronger effect = higher value; further: 0% is about no effect
Chain of UniProt P14416 (P14416 whole entry, looked up): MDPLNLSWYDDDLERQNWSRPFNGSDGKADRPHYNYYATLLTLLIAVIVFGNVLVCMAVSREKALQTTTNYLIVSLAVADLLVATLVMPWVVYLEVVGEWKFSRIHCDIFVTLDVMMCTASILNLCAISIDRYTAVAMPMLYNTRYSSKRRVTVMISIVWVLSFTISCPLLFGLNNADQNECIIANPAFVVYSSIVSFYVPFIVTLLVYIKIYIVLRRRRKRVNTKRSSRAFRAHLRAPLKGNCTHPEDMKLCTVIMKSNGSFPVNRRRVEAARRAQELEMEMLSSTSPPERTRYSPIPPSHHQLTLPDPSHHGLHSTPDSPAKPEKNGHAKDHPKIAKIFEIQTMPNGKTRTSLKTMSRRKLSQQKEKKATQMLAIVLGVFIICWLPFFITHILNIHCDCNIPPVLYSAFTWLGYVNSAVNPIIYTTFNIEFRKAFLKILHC
Procedure, shortened: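 Tetracycline-induced HEK293 T-REx cells expressing D2 force-coupled to calcium signalling were dye-loaded, exposed to compound for 180 s, then challenged with an EC80 of dopamine; calcium flux was followed kinetically for a further 180 s.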

Compound | inhibition
Cc1ccc(Cl)cc1N1CCN(C(=O)Cn2nc(C)c3sc4ccccc4c3c2=O)CC1 | -3.22%
O=C(Nc1cccc(C(=O)OCc2cc(=O)n3c4c(sc3n2)CCCC4)c1)c1cccc(F)c1 | 9.9%
CCC(C)NC(=O)CCSc1nc(-c2ccc3c(c2)OCO3)cc(C(F)(F)F)n1 (stereo not given) | 1.71%
COc1ccc(NC(=O)CCS(=O)(=O)c2nc(-c3ccc4c(c3)OCO4)cc(C(F)(F)F)n2)cc1OC | 7.82%
COc1ccccc1CNC(=O)CCn1c(=O)c2ccccc2n(CC(=O)Nc2cc(Cl)ccc2C)c1=O | 5.84%
CCc1cccc(NC(=O)CSc2ncc3c(n2)-c2cc(Cl)ccc2N(C)S3(=O)=O)c1 | 9.2%
CCOC(=O)c1ccc(N2C(=O)c3[nH]nc(-c4ccc(OC)cc4)c3C2c2cccc(O)c2)cc1 (stereo not given) | 18.1%
COc1ccccc1NC(=O)Cn1nnc(C(=O)NCc2cccs2)c1N | -8.14%
O=c1cc(COc2ccccc2Cl)nc2scc(-c3ccccc3)n12 | -7.92%
O=C(Cn1nc(Cc2cccnc2)c2ccccc2c1=O)Nc1ccc(F)c(Cl)c1 | 8.01%
COc1cccc(CNC(=O)c2sc3ncccc3c2-n2c(C)ccc2C)c1OC | 12.8%
COc1ccccc1C1CCN(Cc2cccc3ccccc23)CC1 | active: 81.6%
COc1ccc(C(=O)NCC(c2ccc(Cl)cc2)N2CCCCC2)cc1 (stereo not given) | -22.7%
NS(=O)(=O)c1ccc(CNC(=O)c2cccc(S(=O)(=O)N3CCc4ccccc43)c2)cc1 | active: 41%
COc1ccccc1CNC(=O)Cn1nc(C)n2cccc2c1=O | -1.06%
O=C(Cn1cnc2onc(-c3ccc(F)cc3)c2c1=O)N1CCN(c2ccc(F)cc2)CC1 | -3.55%
Clc1ccc(/C=N/Nc2nnc(-c3ncc[nH]3)c3ccccc23)cc1 | active: 70.4%
COc1cc(OC)cc(C(=O)NC2CCN(CCCOc3ccccc3)CC2)c1 | active: 46.9%
COc1cccc(C2C(C(=O)Nc3ccccc3OC)=C(C)Nc3nc(-c4ccco4)nn32)c1 (stereo not given) | -4.64%
COc1ccccc1CNC(=O)c1cnc2sc(N3CCCCC3)nn2c1=O | 10.8%
Cc1ccccc1-c1nc(CS(=O)(=O)CC(=O)NCCCc2ccccc2)c(C)o1 | -4.71%
CCC(Sc1nnc2c3ccccc3n(CC)c2n1)C(=O)Nc1ccc(NC(C)=O)cc1 (stereo not given) | -3.22%
COc1ccc(-n2nc(C(=O)NCCc3ccc(OC)c(OC)c3)c3c4ccccc4n(C)c3c2=O)cc1 | 19.4%
CCCOc1cccc(C2c3c(oc4ccc(F)cc4c3=O)C(=O)N2CCc2ccc(OC)cc2)c1 (stereo not given) | -2.72%

Compound | inhibition
O=C(Nc1onc2c1CCCC2)c1ccccc1 | -10.9%
O=C(CN1C(=O)CCn2nc(-c3ccccc3)cc21)NCc1ccccc1 | 3.03%
COc1cccc(CNC(=O)C(=O)NCC(c2ccco2)S(=O)(=O)c2ccccc2)c1 (stereo not given) | 13.2%
Cc1ccc(Cc2c(C)nc3nc(SCC(=O)NCCC(C)C)nn3c2C)cc1 | 2.17%
Cc1nn(C)c(C)c1S(=O)(=O)N(CC(=O)Nc1ccc(F)cc1F)c1ccc(C(C)C)cc1 | 1.44%
COc1ccc(NC(=O)Cn2c(=O)n(-c3ccc(C)cc3)c(=O)c3c2c2cc(C)ccc2n3C)cc1 | 19.1%
COCCNC(=O)C1CCN(C(=O)C2CC(=O)N(c3ccc(C)cc3)C2)CC1 (stereo not given) | active: 30%
Cc1ccc(CN2C(=O)SC(Nc3ccc(Cl)cc3)C2=O)cc1 (stereo not given) | -5.45%
CC1CCN(c2nc3ccc(C(=O)NC(C)C)cc3s2)CC1 | -6.4%
CCn1c(C(=O)NCc2ccccc2Cl)cc2sc(Cl)cc21 | 8.69%
NC(=O)CCN1CCN(CCOC2Cc3cc(Cl)ccc3Sc3ccccc32)CC1 (stereo not given) | active: 93.9%
O=C(CCC(=O)N1Cc2ccccc2Oc2ncccc21)NCc1cccc(Cl)c1 | 0.145%
CC(Oc1ccccc1)C(=O)Nc1ccc(C(=O)OCc2cc(=O)n3nc(C4CC4)sc3n2)cc1 (stereo not given) | 6.74%
O=C(NCc1cccc(Cl)c1)c1ccc(NC(=O)N2CCSc3ccccc32)cc1 | 15.2%
Cc1cc2[nH]c(=O)c(=O)[nH]c2cc1S(=O)(=O)N1CCN(c2ccccc2)CC1 | 6.73%
COc1ccc(Cc2nc3ccccc3n2Cc2ccccc2C)cc1 | -3.14%
Cn1c(=O)c(=O)n(C)c2cc(NS(=O)(=O)c3ccc(Br)cc3)c(Cl)cc21 | -17.7%
CCc1ccc(-n2nc(CO)c(C(=O)NCc3ccccc3Cl)n2)cc1 | 7.89%
COc1ccc(NC(=O)N2CCCn3nc(C)cc32)cc1OC | -4.08%
Cc1c(C(=O)N2CCCCCC2)c(S(=O)(=O)Nc2cccc(C#N)c2)c(C)n1C | 12%
CC1(C)N=C(SCc2ccc(Cl)cc2)c2ccccc2N1 | -3.1%
Cn1c(=O)cc(SCC(=O)NCc2ccc(F)cc2)c2cc(Cl)ccc21 | 11.6%
CCOC(=O)c1c(C)[nH]c(C)c1S(=O)(=O)N1CCC(C(=O)Nc2ccccc2CC)CC1 | -6.56%
COc1ccc(-c2cn3c(n2)sc2cc(C(=O)Nc4ccc(C)c(Cl)c4)ccc23)cc1 | -7.71%

Compound | inhibition
COC(=O)c1ccc(NC(=O)n2ncc3c(C)cccc32)cc1 | 1.26%
CC1=C(c2ccc(C(C)C)cc2)S(=O)(=O)N=C1N1CCC(C(=O)Nc2ccc(C)cc2)CC1 | 8.56%
CCc1ccc(NC(=O)c2cnn(-c3c(C)cccc3C)c2C2CCN(C(=O)OC(C)(C)C)CC2)cc1 | 9.91%
CCOc1ccc(NC(=O)CCCn2c(C)c3cnn(-c4ccccc4)c(=O)c3c2C)cc1 | 1.74%
O=S(=O)(c1ccc(-c2cnc(C3CC3)o2)cc1)N1CCN(c2ccc(F)cc2)CC1 | 7%
CCn1nc(C)c2c(-c3ccccc3)cc(=O)n(C(C)C(=O)NCCc3ccc(Cl)cc3)c21 (stereo not given) | 4.98%
Cc1ccc2[nH]c(=O)c(CN(CCCN3CCOCC3)C(=O)Nc3ccc(Cl)cc3)cc2c1 | active: 31.3%
CN(C)C=NC(=O)c1cc(C(=O)c2ccccc2Cl)c[nH]1 | active: 46.3%
COc1ccc(OC)c(NC(=O)CSC2=Nc3ccccc3C3=NC(CC(=O)NCCc4ccccc4)C(=O)N23)c1 (stereo not given) | 8.15%
CCOc1cccc(CNCCCSc2nnnn2C)c1 | 4.55%
Cc1ccc(-c2ccc([C@H]3[C@H]4C=CC[C@@H](C)[C@@H]4C(=O)N3Cc3ccccc3)c(F)c2)cc1 | active: 33.2%
O=C(c1ccc2c(c1)N(Cc1cccc(Cl)c1)C(=O)c1ccccc1S2=O)N1CCC(Cc2ccccc2)CC1 (stereo not given) | 1.01%
CCn1nnc(NC(=O)c2ccco2)n1 | active: 69.4%
CCOC(=O)c1c(S(=O)(=O)N2CCC(C(=O)Nc3ccc(C)c(Cl)c3)CC2)c(C)n(C)c1C | -18.1%
COc1nnc(-c2ccc(N3CCCCC3)c(NC(=O)c3ccc(C)cc3)c2)c2ccccc12 | -9.27%
O=C(c1cccc([N+](=O)[O-])c1)N1CCN(c2ccc(Nc3ccccc3)nn2)CC1 | -13.7%
CCNC(=O)CC1C(=O)N(c2ccc(C)cc2)C(=O)N1CCOC (stereo not given) | -2.12%
COc1ccc(CNC(=O)CN2C(=O)CCn3nc(-c4cn(C)c5ccccc45)cc32)cc1 | 2.29%
CCOC(=O)C1=C(C)n2c(s/c(=C3\C(=O)Nc4ccccc43)c2=O)=NC1c1ccc(OC)cc1 (stereo not given) | active: 39.7%
COC(=O)c1cc(Cl)c(NC(=O)c2cc3ccccc3o2)cc1OC | active: 32.4%
COc1cc(OC)cc(C(=O)N/N=C/c2ccc(OC)c(COc3ccc(F)cc3)c2)c1 | active: 34.2%
Oc1c(C(c2ccccc2)N2CCCC2)sc2nc(-c3ccco3)nn12 (stereo not given) | 3.19%
COc1ccc(-c2onc(C)c2C)cc1S(=O)(=O)NCCc1ccccc1 | 0.109%
CCOC(=O)Cc1ccc(NC(=O)NC(C)c2c(-n3cccc3)sc(C)c2C)cc1 (stereo not given) | 3.9%

Compound | inhibition
Cc1ccc(C)c(Cn2c(=O)n(-c3ccccc3)c(=O)c3c4c(sc32)CCCC4)c1 | 3.18%
Cc1cc2oc(=O)c(CC(=O)O)c(C)c2c2occ(-c3ccccc3)c12 | 3.09%
O=C(CN1CCc2ccccc2C1)Nc1ccccc1Cl | active: 60.6%
CCOC(=O)c1c(C)[nH]c(CCC(=O)NCc2cc(OC)c(OC)c(OC)c2)c1C | -27.9%
COc1cc(-n2c(=O)c3ccccc3n(Cc3cccc(Cl)c3)c2=O)cc(OC)c1OC | 12.2%
O=C(Nc1ccc(Br)cc1)c1cc(S(=O)(=O)NC2CCCC2)ccc1F | 17.4%
O=C(CCSCCc1ccccn1)Nc1ccc(Cl)cc1 | 2.56%
Cc1ccc2c(C)c(C(=O)N(Cc3ccc(N(C)C)cc3)Cc3ccco3)oc2c1C | 5.21%
COc1ccc2c(c1)c(N1CCCC1=O)c(C(=O)Nc1cc(C)c(Cl)cc1OC)n2C | 8.91%
CCCCCC(=O)Nc1cc(N(C)C)nc2ccccc12 | active: 35.2%
CCN(c1ccccc1)S(=O)(=O)c1nnc(NC(=O)C2CCCCC2)s1 | -9.24%
Cc1ccc2c(c1)cc1c(=O)n(Cc3ccccc3Cl)nc(C)n12 | -6.45%
CCOC(=O)c1ccccc1NC(=O)N1CCC(CN2CCOCC2)CC1 | -4.31%
CC1CCN(CCNC(=S)Nc2ccc(Cl)cc2)CC1 | active: 30.7%
C[C@H](NC(=O)OCc1ccccc1)c1nnc([C@H](Cc2ccccc2)NC(=O)OC(C)(C)C)o1 | active: 30.9%
CCOC(=O)CSc1nnc(CNC(=O)c2cccc(C)c2)n1C | active: 35.3%
CCN1CCN(C(c2ccccc2Cl)c2sc3nc(-c4ccco4)nn3c2O)CC1 (stereo not given) | 15.5%
CCOC(=O)c1[nH]c2c(c1Cc1ccccc1)C(=O)CC(c1ccccc1)C2 (stereo not given) | -12.6%
CCOc1ccc(NC(=O)Cn2nc3c(cc2=O)CC(C)CC3)cc1 (stereo not given) | 2.22%
CC(C)Oc1ccc(C(=O)NCC(c2ccc(N(C)C)cc2)N2CCc3ccccc32)cc1 (stereo not given) | -3.37%
Cc1ccc(-c2noc(-c3nnn(CC(=O)Nc4ccc(C)c(Cl)c4)c3N)n2)cc1 | -8.82%
CCOc1ccc(N(CC(=O)Nc2ccc(OC)cc2)S(=O)(=O)c2ccc(Cl)cc2)cc1 | -0.854%
Cc1ccc(C)c(NC(=O)Cn2c(SCC(=O)NCc3ccccc3)nc3ccccc32)c1 | 0.657%
